Measured values: the supplement of paper PMC11417369
The list shows a part of the results.

Tested on: PfHDP1 homeodomain (GST-tagged)
Assay: gcPBM binding intensity (ln(normalized median fluorescence intensity)); higher = stronger DNA binding
Method in brief: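 Each value is the highest Masliner-normalised natural-log median intensity across replicate spots of either orientation of a probe. The probes were primer-extended double-stranded 36-bp intergenic genomic sequences on an Agilent 4 × 180k array, alongside negative controls, exposed for 1 h to GST-tagged P. falciparum DNA-binding domains expressed in E. coli. Bound protein was picked up with Alexa488 anti-GST antibody and scanned at 488 nm.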

Sequence | gcPBM binding intensity (ln)
AGAAAAAAAAAAAAAAAACACACGGTACATTCAAAG [CACACA_site2] | 6.24
TAATATATATATATTACACACACGTATTATTAAATA [CACACA_site432] | 6.81
TGTATGTATAATTGAGTGCACAGAAAAAAAAAAGAA | 10.6
GTAGACTGAAACCACACACACATATATAAATATATT [CACACA_site6433] | 6.78
AAAAAAAAAAATGGTTGTACTTTTTTTATTTGGTGC [XGTACX_site4498] | 6.18
TATAAAAGTAGACACACACACATATAAATATAAATA [CACACA_site6567] | 6.8
TCTATATCAACCAGTTGTACTGAATTTACTATATTT [XGTACX_site4205] | 6.18
ATAGACTTTTGTTTTGTTTTATTTTATTGTATTGTA [CACACA_negctrl_site618] | 6.5
TCTAACATATTTTTAATACACACTTAAAAAAGTACT [CACACA_site1366] | 6.49
ATTTACATTATATTGAATATGCCATATTATATTATT [CACACA_negctrl_site811] | 6.59
AATGCTTTTCATCAAGTGCAATATGTTAATACAAAC [GTGCAC_site9619] | 8.54
TAAATTAAGAATTTTACACACATTAAATAAAAAAAA [CACACA_site3638] | 6.18
AAAAAAAAAAAAAATTCACACACATATAAAAAATTA [CACACA_site8140] | 6.25
TTTTTTTATTTTTTTATAAATGTATTTCTATTATTT [CACACA_negctrl_site1562] | 6.19
AAATTAGGAAATTGCACACAAAAAAAAACATATTAT [CACACA_site4074] | 9.97
TATAAAATGACTATATATAATATTAAAAAAAAAAAA [TGCATGCA_negctrl_site387] | 5.97
ATTATATATACATAATGTACATATATATATTACCTT [XGTACX_site7624] | 6.63
CTATTGTTAAATATAATACACACGTTTTTAAAAATA [CACACA_site2183] | 6.52
ATAGTAATGCATAAATATATATTATATATATATATA [XGTACX_negctrl_site576] | 8.75

Sequence | gcPBM binding intensity (ln)
GTATATATTTTGTATTCATTTGTCACATATAATAGA [CACACA_negctrl_site506] | 6.61
TTTTTTTTTTTTTGTGTGCACCTTATTTTTTTGTAT [GTGCAC_site9617] | 9.14
CAAACACCCAAACACACACACACATACATACATACA [CACACA_site8044] | 7.82
TATAAATAGGCATATACACACTTTTAATATTCATAA [CACACA_site6123] | 6.58
TCTTTCTCTCTTCAAAGTACATATAATATATACTTC [XGTACX_site7982] | 6.69
ATAACAACATTTGATAAACACACAGAAGTATAAATA [CACACA_site8739] | 6.63
CAGTTAATGTTGGTACTTTATATAAAAATGATATGA [CACACA_negctrl_site1600] | 6.67
AAAATATAGTTATCAATATATAATATTTTTTTTTTA [CACACA_negctrl_site459] | 5.91
TTATTAATATTGCATGCACACTATATAATAATTGAA [CACACA_site8258] | 8.77
AAAATTTCTTTTTTTTGTACATATATAATAATATAT [XGTACX_site7107] | 6.42
ATTTTTCATATATATATATTAATATATATATATTAA [CACACA_negctrl_site1681] | 7.1
TTTGAACGAAAATACTCACACATATTTATAAACATT [CACACA_site5182] | 6.44
GTATTTTTAAATGACACACACATATATATATATATA [CACACA_site1662] | 9.45
TGAATATTTATACATGCACACTAAAATAAAGAATCT [CACACA_site5351] | 8.07
AAAAATATATTATATGTACACACAAAATTAAGGGAT [CACACA_site8384] | 7.47
AATATATTTTAATACACACACACATATATATATATA [CACACA_site5969] | 9.29
ATATGTATATAAATGTGTACTTATAAATATATATAT [XGTACX_site3250] | 8.01
TTTTTTTTAAATATCACACACATATAACATATTCTA [CACACA_site7687] | 6.46
TTTTTTTTTTTTGAGTGTACTAAAATATTACCTTTT [XGTACX_site646] | 6.19

Sequence | gcPBM binding intensity (ln)
TGGAAAAATAGGCACACACACATATATACCTATATA [CACACA_site4843] | 6.65
AATATTATAAATGATACACACTTAAAATACACCCAC [CACACA_site5498] | 7.39
TGAATATTTACTTTAGCACACAATTTGTATTTGATT [CACACA_site960] | 7.26
CATTATTATGATAGTTGTACAATTTTTATAAAAAAT [XGTACX_site4411] | 6.75
TATAAATAAATGCGTACACACTAATAAAAAAAAAAA [CACACA_site4630] | 6.35
GAAATAGAGAAACACACACACATATATTTATGTATT [CACACA_site3967] | 6.45
ATAAAAATAAAAAGATGTACGTATTTTTTTTTTTTT [XGTACX_site5329] | 6.22
TTGTATATATTAAATTGTACTTATTTTTTGTATATA [XGTACX_site3251] | 6.2
ATATTATTATAAACTTCACACATTTTATGGGTTTTT [CACACA_site4631] | 6.41
TATATTATTTATATTTGTACACAGCGATATGAAATA [XGTACX_site987] | 6.68
TACAATTTAAAACACACACACAATAATACATATATA [CACACA_site1251] | 6.89
CGCATATTTTATGTTTGTACTCATATGAATATCATA [XGTACX_site4717] | 6.59
CATAAGCACAAGCACAAGCACACATTTATATATATA [CACACA_site882] | 7.39
GAATTTATTTTATTTTCACACACAAAAATAAATATC [CACACA_site8762] | 6.57
TTCTTTAATAAAATAATCTCAAAGAAAATTTTTTCT [GTGCAC_negctrl_site589] | 5.83
TTATCCATTTTAATCACACATACTTTACTTTGGAAC [CACACA_site5584] | 6.48
AATAAATAGATATATACACACATATATGTGTACATA [CACACA_site7476] | 6.94
GGATAAAATGCTACGAGTACATAAGCATTTTTCCCT [XGTACX_site7796] | 6.7
